Reference: article PMC12136788
Some of the results follow.

T1: UNK ZnF1-3 (human, UniProt Q9C0B0 31-174)
T1 sequence: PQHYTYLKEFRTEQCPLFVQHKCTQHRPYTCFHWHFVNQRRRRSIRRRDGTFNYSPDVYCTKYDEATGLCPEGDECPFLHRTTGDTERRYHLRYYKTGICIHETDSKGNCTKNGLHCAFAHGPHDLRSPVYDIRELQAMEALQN

B1: chr17:64801638:64801639:+_ENSG00000154229_ENST00000413366|hu_mus|hu_hu_hu_mus_False|58_88 (ssRNA)
RNA: GGGAGUUCUACAGUCCGACGAUCUAUAUAUAUAUAUACAUAUGUACACAUAUGUAGUAAAACCCUAGUUAAACGUGUAAACUAGCCAUUCAUUUUUAAAAUUACAUCUACAUUAAAAAAUUAAUAUAUCUGAUAGAGUGCCAGCAACAGAGGAUUGAGCAUCA
B2: 62645084_62645204_982_CDS_ENSMUSG00000032244_ENSMUST00000034775|mouse|control|control (ssRNA)
RNA: GGGAGUUCUACAGUCCGACGAUCAUCAGCUUUACAGCUUUCAGCGGCCACCUUCAAUGGUGUCAUCCCAUGGCCAUUCACCACUAUUGCAGCUCUCCAUUUUAUCAGUUCUUUCACAAUGUCAAUGUGACCAGCUUCGGCUGCCAACAGAGGAUUGAGCAUCA
B3: 17148479_17148599_2661_3pUTR_ENSMUSG00000058230_ENSMUST00000075845|mouse|control|control (ssRNA)
RNA: GGGAGUUCUACAGUCCGACGAUCACUCCUUUGAAUUGUAAAGGCAGAGACAGCCAUGGGGUUGGAAGGUUGGUGUCUGGAAAGAGUUCACAGGAAGCCGGACAUUCCCCUCUAUUGGCCUCAGAGAAAGCUCAUACAUUUUACCAACAGAGGAUUGAGCAUCA
B4: 19491381_19491752_4390_CDS_ENSG00000127481_ENST00000375254|human|control|control (ssRNA)
RNA: GGGAGUUCUACAGUCCGACGAUCCGAUGUAGUCAUGCGGGUGAGCCAGGCCUGCAGGCGCACAGGUUCCACACAGGCCAGUUGUGCCAGGGAGCCACAGAGAUGCAACAGGCUCGGGUUAGGGCUCUUCUCAGUCAGCUGGAACAACAGAGGAUUGAGCAUCA
B5: chr22:26877738:26877739:-_ENSG00000100099_ENST00000336873|hu_mus|FALSE|FALSE (ssRNA)
RNA: GGGAGUUCUACAGUCCGACGAUCUCCACCACGCUGCUGACUUUGUCUCUGGGGGAGUGGUGGUGGCCAUUUACUCUCCAGAUGGCUUCAUCCUCUUCAUCUGGUGUUCUUCCUAGAAGCAGUUCUCUGUCCCCCAACUGGUGUCAACAGAGGAUUGAGCAUCA
B6: chr7:123332509:123332510:-_ENSG00000106299_ENST00000223023|hu_mus|FALSE|FALSE (ssRNA)
RNA: GGGAGUUCUACAGUCCGACGAUCUGAGCAGGACACGGGCCGGCUAUUCUGUUCCACUUUUUUCAGCUGAGCACCCUCUCUAAUUUGAUCCAAAAGAGCUGCUUUGUUUCCUGAAGGAGCUGGAACUUGAUGGUCACCAUCAGACAACAGAGGAUUGAGCAUCA
B7: chrX:71549762:71549763:+_ENSMUSG00000019087_ENSMUST00000019231|mus_mus|mus_mus_mus_hu_False|8_68 (ssRNA)
RNA: GGGAGUUCUACAGUCCGACGAUCAAACCCGUGUACUUCUUAUUGUUAGCACAACAUCACCAGAAAAAAAACAUAACAGCCAAGCAGGACAGACAGUUAAGUAGUACUUCCACACUCCCAAACUCAGAGGAACCUCAAACCUUACAACAGAGGAUUGAGCAUCA
B8: chr2:242276830:242276831:+_ENSG00000168385_ENST00000391971|hu_hu|FALSE|FALSE (ssRNA)
RNA: GGGAGUUCUACAGUCCGACGAUCUAAGGGCUUAAGUCCAUGUCCAAAAGGUGAAAUAAAGUAAAAGCAACAAUGCACCCUAUUAUCAAUGAUGUGCCGCCUGUUCAAGCCGCUCUCGUCAUGCAGGUACCUCUCAAAUUGCUCCAACAGAGGAUUGAGCAUCA
B9: 103434694_103434927_2470_CDS_ENSG00000198752_ENST00000361246|human|control|control (ssRNA)
RNA: GGGAGUUCUACAGUCCGACGAUCCCGUUCUCGCUUUGACUUUUCUAACUUAUCUUUUAACAUCAAGAUUUCUUUCUGCAGGGCCAGCUGGUGGCUUUCUGAAUCAUGCACCUCCUUCUUCACAUUUUUCACUUCUAGCACAUGCAACAGAGGAUUGAGCAUCA
B10: chr10:107688926:107688927:+_ENSMUSG00000019907_ENSMUST00000070663|mus_mus|FALSE|FALSE (ssRNA)
RNA: GGGAGUUCUACAGUCCGACGAUCUUCAUUGAUCGAACUAUUCUUUUUAAGAUCAUCUUCCCAUUUUCUUCUUGUGUAAGAACUACUUGUUCGCAAACUUGAAGACUCUCUGUUCUCCUUCUCUUCAAUGUCAGAUGUACUGGCCAACAGAGGAUUGAGCAUCA
B11: chr22:32879901:32879902:+_ENSG00000100225_ENST00000397426|hu_mus|hu_hu_hu_mus_False|28_108 (ssRNA)
RNA: GGGAGUUCUACAGUCCGACGAUCCUCUGCCAUAUGCAUGGCAUCCUGAAUUGACUCAGCUUCAACAUUUUGACUAGGCCCUUCCAUACUGUCAUCAGUCCAGGCAUCAGACUGGGCGGCCUGUCCUUGGGAUGAAUCAGUCCCCAACAGAGGAUUGAGCAUCA
B12: chr4:76721835:76721836:+_ENSG00000138768_ENST00000264904|hu_mus|hu_hu_hu_mus_True|18_68 (ssRNA)
RNA: GGGAGUUCUACAGUCCGACGAUCGUUUGGCUGGGGUUUCUGAGACGCUCUGGAAUAUAACUCAUGUUGCUAAUAAAAUCCUAGUUUCUCUAUGAAAUUCUCUUUGCCAAUCCUCUUUCAAUCAGUUUGCUUUAGUUUCUCUUUCAACAGAGGAUUGAGCAUCA
B13: chr7:130337358:130337359:+_ENSMUSG00000052707_ENSMUST00000094053|mus_hu|FALSE|FALSE (ssRNA)
RNA: GGGAGUUCUACAGUCCGACGAUCUUUUUUUUUUAAACUGGGGAACUGGUUUUCCUGAGAACCAUGCUCUUUGAUUUGGGACAGGAAUAGAAAAACAAAAGAACAUGGCCAAAUGCUGCUCCUUUUUCCCAGAGAUAGAAAGCACAACAGAGGAUUGAGCAUCA
B14: 9449942_9450062_146_5pUTR_ENSMUSG00000024286_ENSMUST00000053917|mouse|control|control (ssRNA)
RNA: GGGAGUUCUACAGUCCGACGAUCUGGCGGGUGGCGCCGCGCAGGCCGCCUCCCACCGUGUUCUUGUUCAGCGCUCCGCUCCCAGCGGCGACUUCCGCAAGCGGUUCCGGUUCACGCCGGGGACACGCGAGUGCGCGCGGAUACCAACAGAGGAUUGAGCAUCA
B15: chr4:84185219:84185220:-_ENSG00000173085_ENST00000439031|hu_mus|FALSE|FALSE (ssRNA)
RNA: GGGAGUUCUACAGUCCGACGAUCGCUGUGACAGGGAGCUGGUUGAAAGCAGCUGCAGUAAAGUCCAGUACACGCUGCCCGAGUGCUUCUUACUUCUUUAACAGAUUGCUCAUCCAAGCCUAACAAUGUAGUCUUAAGCCCUGACAACAGAGGAUUGAGCAUCA
B16: chr18:50337633:50337634:+_ENSMUSG00000024507_ENSMUST00000025385|mus_hu|FALSE|FALSE (ssRNA)
RNA: GGGAGUUCUACAGUCCGACGAUCAUAUACUGGUUUUGCAAAACGAGCCUUAAUUGCCUUGAAUCUUGACACAUCAUUAUCUGCAAACUGCUGUAACACACGCCUGGCAGAAAAUCCAAAUGUACAUAAUCCAUGUAAUAUGGGCAACAGAGGAUUGAGCAUCA
B17: chr10:86154994:86154995:-_ENSMUSG00000020048_ENSMUST00000020238|mus_mus|FALSE|FALSE (ssRNA)
RNA: GGGAGUUCUACAGUCCGACGAUCCGCCUUGGUGUCUGGUAGAAGAUAUCCUGACCGAAGUGUUGCCGUUUCAAACAAAACUACAGCAAGAUCCAUGACUGUCUUGUCAUCUUCAUCUUCCUUAAUCCGCCGCAACAUGUCUCUCAACAGAGGAUUGAGCAUCA
B18: 184049334_184049575_4278_CDS_ENSG00000114867_ENST00000411531|human|control|control (ssRNA)
RNA: GGGAGUUCUACAGUCCGACGAUCAGCCGUCAUGAGGGCUCGAACUAACGUGUUGGAUACUAUCUGCUGCUCACUCAGGUUGGCCUCUAUCCAGUCGAACACCCGCUGGUUACUGCUGCCCUCCUUCAGCAGCUUCUCCAGCUGCAACAGAGGAUUGAGCAUCA
B19: chr1:29344887:29344888:+_ENSG00000159023_ENST00000356093|perfect_dup|FALSE|FALSE (ssRNA)
RNA: GGGAGUUCUACAGUCCGACGAUCUUCCAUGACCUUCUCUUCAAGUUCCUUGGUCUGAUUCGGGGCCAGUUUAAAAUCACUAACAUAAUCCACGCCAUGGAGUUCUGGGUCGUAGUCUCCCAGUUCAGACUGGAUGGUGUAAGACAACAGAGGAUUGAGCAUCA
B20: chr6:40197388:40197389:+_ENSMUSG00000057716_ENSMUST00000061740|mus_mus|mus_mus_mus_hu_False|78_108 (ssRNA)
RNA: GGGAGUUCUACAGUCCGACGAUCGAGUUGUCAGUUUGGAUUUAUUCCACCUCUGUUUGCUAGCCUCCCACUAAGACUGUUAUUUUGGGAUUCAUGGCCUUGAAUAUCAAGAGGGAAAGGAAGAGGAUGGAAAGAGUCAAGAGUCAACAGAGGAUUGAGCAUCA
B21: 40027678_40027798_1884_CDS_ENSG00000065883_ENST00000340829|human|control|control (ssRNA)
RNA: GGGAGUUCUACAGUCCGACGAUCGGUGACUAAAGCUACAUGUUGCUCCUUCUCCUUGGCUCCUAUGCUUGGUGUAAGUGGUUUGGUUUUCUCUUUAAGAGAUACUGAUUCCUCCUUUGUAGCAGCAGAUUUACUCUCCUUUCCCAACAGAGGAUUGAGCAUCA
B22: 124788451_124788571_2579_3pUTR_ENSMUSG00000028863_ENSMUST00000154689|mouse|control|control (ssRNA)
RNA: GGGAGUUCUACAGUCCGACGAUCGGUUGACAUGGCACUGAGGGUCGACCCCCUGCAUGCUAGACAAUUACUCCGUCACUGAGCUAUGCCACUCGUCUUCUUGAUGCCCUUAUUCGAUGCUACCCAGAAAUAGGGAAAGCAAGUCAACAGAGGAUUGAGCAUCA

Each binder was assayed against T1, UNK ZnF1-3 (assay: nsRBNS (natural sequence RNA bind-n-seq); RBNS binding buffer (assumed for nsRBNS): 25 mM Tris pH 7.5, 150 mM KCl, 3 mM MgCl2, 0.01% Triton X-100, 500 ug/ml BSA, 20 U/ml SUPERase-In, 4 C; UNK is unkempt and MSI1 is Musashi-1; names of the RNAs are library labels; protein concentration not given here; high values mean tight binding).

Binder	binding signal
B1	1.7 enrichment R
B2	0.663 enrichment R
B3	1.43 enrichment R
B4	1.16 enrichment R
B5	0.69 enrichment R
B6	1.22 enrichment R
B7	2.36 enrichment R
B8	1 enrichment R
B9	0.664 enrichment R
B10	0.33 enrichment R
B11	0.676 enrichment R
B12	0.473 enrichment R
B13	1.15 enrichment R
B14	0.584 enrichment R
B15	1.18 enrichment R
B16	1.04 enrichment R
B17	0.586 enrichment R
B18	0.59 enrichment R
B19	0.621 enrichment R
B20	1.34 enrichment R
B21	0.525 enrichment R
B22	0.814 enrichment R
